# Laboratory results taken from the supplement of paper PMC8728848.
# Some of the results follow.
# Columns and labels:
# Assay in all cases: glycan array binding signal (z-score within array); higher = stronger binding
# Details in all cases: glycan notation: IUPAC condensed, linker removed
# [1] = target: Glc(a1-6)Glc(a1-6)Glc
# How it was run: (§1)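 Columns mapping to the same glycan were averaged after glycan names were converted to IUPAC-condensed notation. The data come from 3228 arrays in the Consortium for Functional Glycomics database, limited to those with an available protein sequence. Binding is reported as a within-array Z-score averaged across arrays of one protein sequence and across linkers.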
# [2] = target: Glc(a1-6)Glc(a1-6)Glc(a1-6)Glc
# How it was run: as §1
# [3] = target: Glc(b1-4)Glc
# How it was run: as §1
# [4] = target: Glc(b1-6)Glc
# How it was run: as §1
# [5] = target: GlcA(b1-3)Gal
# How it was run: as §1
# [6] = target: GlcA(b1-3)GlcNAc
# How it was run: as §1
# [7] = target: GlcA(b1-6)Gal
# How it was run: as §1
# [8] = target: GlcA3S(b1-3)Gal(b1-4)GlcNAc(b1-2)Man
# How it was run: as §1
# [9] = target: GlcA3S(b1-3)Gal(b1-4)GlcNAc(b1-3)Gal(b1-4)Glc
# How it was run: as §1
# [10] = target: GlcNAc(a1-3)Gal(b1-4)GlcNAc
# How it was run: as §1
# [11] = target: GlcNAc(a1-4)Gal(b1-3)GlcNAc
# How it was run: as §1
# [12] = target: GlcNAc(a1-4)Gal(b1-4)GalNAc
# How it was run: as §1
# [13] = target: GlcNAc(a1-4)Gal(b1-4)GlcNAc
# How it was run: as §1
# [14] = target: GlcNAc(a1-4)Gal(b1-4)GlcNAc(b1-3)Gal(b1-4)Glc
# How it was run: as §1
# [15] = target: GlcNAc(a1-4)Gal(b1-4)GlcNAc(b1-3)Gal(b1-4)GlcNAc
# How it was run: as §1
# [16] = target: GlcNAc(a1-4)Gal(b1-4)GlcNAc(b1-3)Gal(b1-4)GlcNAc(b1-3)Gal(b1-4)GlcNAc
# How it was run: as §1
# [17] = target: GlcNAc(a1-4)Gal(b1-4)GlcNAc(b1-3)Gal(b1-4)[Fuc(a1-3)]GlcNAc(b1-3)Gal(b1-4)[Fuc(a1-3)]GlcNAc
# How it was run: as §1
# [18] = target: GlcNAc(a1-6)Gal(b1-4)GlcNAc
# How it was run: as §1
# [19] = target: GlcNAc(b1-2)Gal(b1-3)GalNAc
# How it was run: as §1
# [20] = target: GlcNAc(b1-2)Man(a1-3)[GlcNAc(b1-2)Man(a1-6)]Man(b1-4)GlcNAc(b1-4)GlcNAc
# How it was run: as §1
# [21] = target: GlcNAc(b1-2)Man(a1-3)[GlcNAc(b1-2)Man(a1-6)]Man(b1-4)GlcNAc(b1-4)[Fuc(a1-6)]GlcNAc
# How it was run: as §1
# [22] = target: GlcNAc(b1-2)Man(a1-3)[GlcNAc(b1-4)][GlcNAc(b1-2)Man(a1-6)]Man(b1-4)GlcNAc(b1-4)GlcNAc
# How it was run: as §1
# [23] = target: GlcNAc(b1-2)Man(a1-3)[GlcNAc(b1-4)][GlcNAc(b1-2)Man(a1-6)]Man(b1-4)GlcNAc(b1-4)[Fuc(a1-6)]GlcNAc
# How it was run: as §1
# [24] = target: GlcNAc(b1-2)[GlcNAc(b1-4)]Man(a1-3)[GlcNAc(b1-2)Man(a1-6)]Man(b1-4)GlcNAc(b1-4)GlcNAc
# How it was run: as §1
# [25] = target: GlcNAc(b1-2)[GlcNAc(b1-4)]Man(a1-3)[GlcNAc(b1-4)][GlcNAc(b1-2)Man(a1-6)]Man(b1-4)GlcNAc(b1-4)GlcNAc
# How it was run: as §1
# [26] = target: GlcNAc(b1-2)[GlcNAc(b1-4)]Man(a1-3)[GlcNAc(b1-4)][GlcNAc(b1-2)[GlcNAc(b1-6)]Man(a1-6)]Man(b1-4)GlcNAc(b1-4)GlcNAc
# How it was run: as §1
# [27] = target: GlcNAc(b1-2)[GlcNAc(b1-4)]Man(a1-3)[GlcNAc(b1-4)][GlcNAc(b1-2)[GlcNAc(b1-6)]Man(a1-6)]Man(b1-4)GlcNAc(b1-4)[Fuc(a1-6)]GlcNAc
# How it was run: as §1
# [28] = target: GlcNAc(b1-2)[GlcNAc(b1-6)]Man(a1-6)[GlcNAc(b1-2)Man(a1-3)]Man(b1-4)GlcNAc(b1-4)GlcNAc
# How it was run: as §1
# [29] = target: GlcNAc(b1-2)[GlcNAc(b1-6)]Man(a1-6)[GlcNAc(b1-2)Man(a1-3)]Man(b1-4)GlcNAc(b1-4)[Fuc(a1-6)]GlcNAc
# How it was run: as §1
# [30] = target: GlcNAc(b1-2)[GlcNAc(b1-6)]Man(a1-6)[GlcNAc(b1-2)Man(a1-3)][GlcNAc(b1-4)]Man(b1-4)GlcNAc(b1-4)GlcNAc
# How it was run: as §1
# [31] = target: GlcNAc(b1-2)[GlcNAc(b1-6)]Man(a1-6)[GlcNAc(b1-4)][GlcNAc(b1-2)Man(a1-3)]Man(b1-4)GlcNAc(b1-4)GlcNAc
# How it was run: as §1
# [32] = target: GlcNAc(b1-3)Fuc
# How it was run: as §1
# [33] = target: GlcNAc(b1-3)Gal
# How it was run: as §1
# [34] = target: GlcNAc(b1-3)Gal(b1-3)GalNAc
# How it was run: as §1
# [35] = target: GlcNAc(b1-3)Gal(b1-4)Glc
# How it was run: as §1
# [36] = target: GlcNAc(b1-3)Gal(b1-4)GlcNAc
# How it was run: as §1
# [37] = target: GlcNAc(b1-3)Gal(b1-4)GlcNAc(b1-2)Man(a1-3)[GlcNAc(b1-3)Gal(b1-4)GlcNAc(b1-2)Man(a1-6)]Man(b1-4)GlcNAc(b1-4)GlcNAc
# How it was run: as §1
binder,measurement,setting,value
PpFlo2 (Pichia pastoris) (protein) MGSSHHHHHHSSGLVPRGSHMDDSGNGDNSDTAYGCDITTNAVDGFDATIYQYNANDLRLIRDPTFMSTGYLGRNVLNKISGVTVPGFNIWNPSSRTATVYGVKNVNYYNMVLELKGYFKADVSGDYKLTLSHIDDSSMLFFGKETAFKCCDAGSIPLNEAPTDYSLFTIKPSNQVNSEVISATQYLEAGKYYPVRIVFVNALERARFDFKLTIPSGAVLDDFQNYIYQFGDLDENSCHE,glycan array binding signal (z-score),[1],-0.299
same,glycan array binding signal (z-score),[2],-0.303
same,glycan array binding signal (z-score),[3],-0.296
same,glycan array binding signal (z-score),[4],-0.3
same,glycan array binding signal (z-score),[5],-0.3
same,glycan array binding signal (z-score),[6],-0.254
same,glycan array binding signal (z-score),[7],-0.297
same,glycan array binding signal (z-score),[8],-0.271
same,glycan array binding signal (z-score),[9],-0.272
same,glycan array binding signal (z-score),[10],2
same,glycan array binding signal (z-score),[11],-0.269
same,glycan array binding signal (z-score),[12],-0.288
same,glycan array binding signal (z-score),[13],-0.258
same,glycan array binding signal (z-score),[14],-0.247
same,glycan array binding signal (z-score),[15],-0.209
same,glycan array binding signal (z-score),[16],-0.203
same,glycan array binding signal (z-score),[17],-0.213
same,glycan array binding signal (z-score),[18],0.182
same,glycan array binding signal (z-score),[19],-0.079
same,glycan array binding signal (z-score),[20],3.88
same,glycan array binding signal (z-score),[21],1.5
same,glycan array binding signal (z-score),[22],1.72
same,glycan array binding signal (z-score),[23],0.447
same,glycan array binding signal (z-score),[24],2.46
same,glycan array binding signal (z-score),[25],1.17
same,glycan array binding signal (z-score),[26],0.675
same,glycan array binding signal (z-score),[27],-0.108
same,glycan array binding signal (z-score),[28],2.81
same,glycan array binding signal (z-score),[29],2.24
same,glycan array binding signal (z-score),[30],2.19
same,glycan array binding signal (z-score),[31],-0.024
same,glycan array binding signal (z-score),[32],0.04
same,glycan array binding signal (z-score),[33],1.09
same,glycan array binding signal (z-score),[34],2.32
same,glycan array binding signal (z-score),[35],1.83
same,glycan array binding signal (z-score),[36],2.79
same,glycan array binding signal (z-score),[37],4.64
